PubChem BioAssay (NCATS)
Inconclusive means that the source gave no clear call. Such entries were picked first, then a sample of the others. For part of these data: A potency beside an inconclusive call is a rough fit, not a confirmed value. Active and inactive are the calls of the source. Unless noted, calls follow the shape of the dose curve; as a rule, active = well fitted curve in the direction sought with a large enough effect; inconclusive = small, poorly fitted or top-dose-only effect, or another doubt; inactive = no such curve, though single readings can be large; an effect the other way counts as inactive or inconclusive.

Key:
[1] = Cell Viability - BJ (AID 421; calls by dose curve;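 also: potency is read from the fitted curve at half-maximal effect; cells exposed to compound for 40 hours at 37 °C before readout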); conditions: BJ fibroblast viability, qHTS
Outline: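 Normal human BJ foreskin fibroblasts, 1500/well in complete medium, treated 40 hr at 37 °C. Cellular ATP by CellTiter-Glo luminescence; normalized to DMSO and 100 uM tamoxifen, AC50 from Hill fit.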

[2] = Cell Viability - Jurkat (AID 426;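 active = dose-dependent loss of cell ATP signal giving a full or clear fitted curve, ranked by lower potency value; inconclusive = weak partial curve or response only at the top dose; inactive = no loss of viability signal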; also: potency is read from the fitted curve at half-maximal effect); conditions: qHTS
Outline: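 Cytotoxicity taken as drop in cellular ATP (CellTiter-Glo luminescence, 20 min room temperature) after 40 hr, 37C treatment of 5000 Jurkat Clone E6-1 cells per well; concentration-response fitted with Hill equation for AC50.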

[3] = Cell Viability - Hek293 (AID 427;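 active = compounds whose dose-response curve shows a full or clear partial loss of cell viability, called from curve shape rather than a numeric limit; inconclusive = weak partial curves or an effect only at the top dose; inactive = no dose-dependent loss of viability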;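 also: potency is read from the fitted curve at half-maximal effect; cells exposed to compound for 40 hours at 37 °C before reading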); conditions: qHTS
Outline: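 HEK293 cells in complete medium were exposed to compound for 40 hr at 37 °C, then cellular ATP was read by CellTiter-Glo luminescence. Data were normalized to DMSO (basal) and 100 uM tamoxifen (100% inhibition), and AC50 came from Hill fits.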

[4] = Cell Viability - SK-N-SH (AID 435; calls by dose curve; also: potency is read from the fitted curve at half-maximal effect); conditions: SK-N-SH neuroblastoma cell viability qHTS
Outline: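 CellTiter-Glo ATP luminescence, 20 min RT read; cells pre-plated 5 hr, compound 40 hr at 37 °C, 1500 cells/well, complete medium. Normalized DMSO = 0, 100 uM tamoxifen = 100% inhibition; Hill-fit AC50.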

[5] = molecular target: Mitogen-activated protein kinase 10 (Mus musculus) (UniProt Q61831); experiment: JNK3 AlphaScreen Assay (AID 530; active = well fitted curve in either direction with a large enough effect, not every such curve was filed as active; inconclusive = small, poorly fitted or top-dose-only effect, or another doubt;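 also: kinase came from lysate of stimulated human HepG2 cells; signal reports phosphorylation of biotinylated GST-cJun 1-79 at Ser73 with 10 µM ATP; potency is read from the fitted curve at half-maximal effect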); conditions: JNK3 lysate, c-Jun phosphorylation; activity change, negative = inhibition: at 57.1 µM (top of the series)
Outline: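 qHTS titrations with 15 min compound pre-incubation before adding ATP (10 uM final). Read-out: AlphaScreen of Ser73-phosphorylated biotin-GST-cJun using HepG2 lysate JNK3 activated by IL-1β and TNFα.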

[6] = Cell Viability - H-4-II-E (AID 543); also: potency is read from the fitted curve at half-maximal effect; nearly all actives have a fitted effect of over 35% in size
Outline: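 CellTiter-Glo luminescence (intracellular ATP) measured after 40 h compound exposure at 37 °C in H-4-II-E rat hepatoma cells seeded at 1500/well. Values are AC50s fitted with the standard Hill equation.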

[7] = Cell Viability - Renal Proximal Tubule (AID 545); conditions: renal proximal tubule cells viability, primary cells of rat origin; activity change, negative = cytotoxicity: at 91.7 µM (top of the series);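 also: 0% = DMSO only and -100% = 100 µM tamoxifen; nearly all actives have a fitted effect of over 40% in size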
Outline: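 Rat kidney proximal tubule cells, freshly isolated; 1000 cells/well, 5 hr settle, compound 40 hr 37 °C. CellTiter-Glo 20 min RT, luminescence read. AC50 by standard Hill fit.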

[8] = Cellular Toxicity (caspase-3) SHSY5Y (AID 657);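 also: potency is read from the fitted curve at half-maximal effect; cells exposed to compound for 16 hours at 37 °C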
Outline: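 Luminescent caspase-3/7 readout (aminoluciferin release) in SH-SY5Y cells after 16 h compound exposure in complete medium. Activity scaled between DMSO basal and 10 uM staurosporine as 100%; concentration-response fitted to Hill equation for AC50.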

[9] = Cell Viability - LYMP2-001 (AID 921); also: potency is read from the fitted curve at half-maximal effect; nearly all actives have a fitted effect of over 70% in size
Outline: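 CellTiter-Glo luminescence (intracellular ATP) after 24 hr compound exposure at 37 C, 2500 lymphoblastoid cells/well in complete medium. AC50 fitted with standard Hill equation; tetraoctylammonium bromide positive control.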

[10] = MultiTox-Fluor Cytotoxicity Assay - LYMP1-001 - Dead Cells (AID 946); conditions: LYMP1-001 lymphoblastoid cells, dead-cell protease fluorescence; cytotoxicity (dead cells): at 92.2 µM (top of the series);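 also: 0% = DMSO and 100% = tetraoctylammonium bromide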
Outline: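 LYMP1-001 lymphoblastoid cells (2500/well) treated 16 h at 37 C. Dead-cell protease cleavage of bis-AAF-R110 read at Ex/Em 485/520. Normalized to DMSO and 15 uM tetraoctylammonium bromide; AC50 from Hill fits.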

[11] = MultiTox-Fluor Cytotoxicity Assay - LYMP1-001 - Live Cells (AID 947); also: potency is read from the fitted curve at half-maximal effect
[12] = MultiTox-Fluor Cytotoxicity Assay - LYMP1-002 - Live Cells (AID 955);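 also: potency is read from the fitted curve at half-maximal effect; cells exposed to compound for 16 hours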
Outline: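 After 16 h compound exposure at 37 C, live LYMP1-002 lymphoblastoid cells (2500/well) were quantified by cleavage of cell-permeant GF-AFC substrate, read at 405/510 nm after 60 min. Concentration-response fitted with Hill equation for AC50.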

[13] = Cell Viability - LYMP1-003 - Assay at 40 hr (AID 964); also: potency is read from the fitted curve at half-maximal effect; nearly all actives have a fitted effect of over 60% in size
Outline: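 Viability is taken as cellular ATP, read by CellTiter-Glo luminescence after 40 h of compound exposure at 37 C. Cells: human lymphoblastoid line LYMP1-003 at 2500/well; AC50 values derived by Hill-equation fitting of concentration-response data.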

[14] = Cell Viability - LYMP2-004 (AID 966); also: potency is read from the fitted curve at half-maximal effect; nearly all actives have a fitted effect of over 65% in size
Outline: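 AC50 values come from Hill modelling of concentration-dependent loss of intracellular ATP, measured by CellTiter-Glo luminescence. Human LYMP2-004 lymphoblastoid cells (2500/well) were exposed to compound for 24 h at 37 C.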

[15] = Cell Viability - LYMP2-005 (AID 967); also: potency is read from the fitted curve at half-maximal effect
Outline: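 Steps: seed 2500 LYMP2-005 cells/well, incubate 5 h at 37 C, add compound, incubate 24 h at 37 C, add CellTiter-Glo, wait 30 min at RT, read luminescence. Concentration-response data fitted to Hill equation for AC50.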

[16] = Cell Viability - LYMP2-009 (AID 968); also: potency is read from the fitted curve at half-maximal effect; nearly all actives have a fitted effect of over 55% in size
[17] = Cell Viability - LYMP2-011 (AID 969); also: potency is read from the fitted curve at half-maximal effect; nearly all actives have a fitted effect of over 60% in size
Outline: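 Cytotoxicity qHTS with ATP content as read-out: lymphoblastoid cells (2500/well) exposed to compound for 24 h at 37 C, then luciferase luminescence measured. Concentration-response data fitted with the standard Hill equation to give AC50.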

[18] = Cell Viability - LYMP2-013 (AID 970); conditions: LYMP2-013 lymphoblastoid cells viability; activity change, negative = cytotoxic: at 92.2 µM (top of the series); also: potency is read from the fitted curve at half-maximal effect; nearly all actives have a fitted effect of over 55% in size
Outline: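 qHTS cytotoxicity: ATP-dependent luminescence (CellTiter-Glo, 30 min room temperature) read after 24 h compound exposure at 37 C of 2500 LYMP2-013 lymphoblastoid cells per well. Concentration-response fitted with Hill equation to give AC50.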

[19] = Cell Viability - LYMP2-015 (AID 971); also: potency is read from the fitted curve at half-maximal effect; nearly all actives have a fitted effect of over 55% in size
Outline: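 Cytotoxicity readout: decrease in intracellular ATP (CellTiter-Glo luminescence) in 2500 LYMP2-015 lymphoblastoid cells/well after 24 h compound exposure at 37 C. Concentration-response data fitted with the standard Hill equation to give AC50.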

[20] = Cell Viability - LYMP2-017 (AID 972); also: potency is read from the fitted curve at half-maximal effect; nearly all actives have a fitted effect of over 55% in size
Outline: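 CellTiter-Glo luminescence (cellular ATP, 30 min RT) measured cytotoxicity after 24 hr compound treatment at 37 C. Cells were a human lymphoblastoid line, LYMP2-017, plated at 2500/well and incubated 5 hr first; concentration-response fitted with Hill equation for AC50.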

[21] = Cell Viability - LYMP2-019 (AID 973)
Outline: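 AC50 values come from Hill-equation fits of luminescent intracellular ATP (CellTiter-Glo, 30 min, room temperature) following 24 h compound exposure at 37 C. Cells: LYMP2-019 lymphoblastoid line, 2500 per well, in complete culture medium.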
Tags tell the direction and shape of the fitted curve.

CCN(CC)c1ccc(N)cc1
active: Potency [2] 44 µM | Potency [6] 79.4 µM
inconclusive: Potency [1] 165 µM [single point] | Potency [3] 52.3 µM [partial curve] | Potency [4] 50.3 µM [partial curve] | Potency [5] 12.6 µM [inhibitor, partial curve] | activity change, negative = cytotoxicity [7] -38.2% | Potency [8] 63.1 µM [rising, single point] | Potency [9] 79.4 µM [cytotoxic, partial curve, poor fit] | cytotoxicity (dead cells) [10] 34.7% [cytotoxic] | Potency [11] 39.8 µM [cytotoxic, partial curve, poor fit] | Potency [12] 25.1 µM [cytotoxic, partial curve] | Potency [13] 39.8 µM [cytotoxic, partial curve] | Potency [14] 39.8 µM [cytotoxic, partial curve, poor fit] | Potency [15] 39.8 µM [cytotoxic, partial curve, poor fit] | Potency [16] 39.8 µM [cytotoxic, partial curve] | Potency [17] 79.4 µM [cytotoxic, partial curve, poor fit] | Potency [18] 50.1 µM [cytotoxic, single point] | Potency [19] 50.1 µM [cytotoxic, partial curve, poor fit] | Potency [20] 39.8 µM [cytotoxic, partial curve] | Potency [21] 39.8 µM [cytotoxic, partial curve]
